{
  "source": "PubChem BioAssay AID463173",
  "about": "(ICCB-Longwood Screening Facility, Harvard Medical School, 2010)",
  "note": "Screen size: about 52,000 compounds; about 1,700 (3.3%) were called active. Rule as the data show it: active = survival mostly below about 52% (no sharp cut-off); inactive = mostly above about 56%. Some of the results follow.",
  "data": [
    {"test_system": "Wild type", "assay": "S. aureus survival, RN4220 and DeltatarO strains – OD600, teichoic acid synthesis inhibitors, primary screen (AID 463173)", "details": "S. aureus RN4220 wild type/DeltatarO growth, OD600, 18 h, stronger effect = lower value, screened at 18.75 µg/mL (by protocol)", "values": [
      {"molecule": "CC1Cc2ccccc2N1C(=O)CSc1nc(N)cc(N)n1", "note": "(stereo not given)", "survival": "inactive: 99%"},
      {"molecule": "O=C(CCC(=O)N1CC2CCCN2c2ccccc21)NCc1ccccc1F", "note": "(stereo not given)", "survival": "inactive: 129%"},
      {"molecule": "CCOC(=O)CC(NC(=O)c1cc2cc(OC)ccc2oc1=O)c1ccc(OC)cc1", "note": "(stereo not given)", "survival": "inactive: 93%"},
      {"molecule": "Cc1cccc(C(=O)Nc2nnc(S(=O)(=O)N3CCC(C)CC3)s2)c1", "survival": "inactive: 34%"},
      {"molecule": "COc1ccc(-c2cc(C(=O)Nc3ccc(C#N)cc3)no2)cc1", "survival": "inactive: 86%"},
      {"molecule": "Cc1cccc(OCC(=O)OCc2cc(=O)n3nc(C4CC4)sc3n2)c1", "survival": "inactive: 112%"},
      {"molecule": "O=C(NCc1ccccc1)c1cccc(Nc2nc3ccccc3n3nnnc23)c1", "survival": "inactive: 83%"},
      {"molecule": "CCOc1ccc(CNC(=O)CCS(=O)(=O)c2cc3c4c(c2)CCN4C(=O)CC3)cc1", "survival": "inactive: 71%"},
      {"molecule": "O=C(C1CCN(S(=O)(=O)c2cccc3nonc23)CC1)N1CCN(c2ccc(F)cc2)CC1", "survival": "inactive: 95%"},
      {"molecule": "O=C(c1ccccc1)c1ccc(C(=O)O)c(C(=O)O)c1", "survival": "inactive: 106%"},
      {"molecule": "CC1CCN(C(=O)CN2CCSc3ccc(S(=O)(=O)N(C)C)cc32)CC1", "survival": "inactive: 72%"},
      {"molecule": "CCOC(=O)c1c(C)oc2ncnc(Nc3ccc(CC)cc3)c12", "survival": "inactive: 86%"},
      {"molecule": "CCC(=O)N1CCc2cc(S(=O)(=O)NCCC(=O)NC(C)c3ccccc3)ccc21", "note": "(stereo not given)", "survival": "inactive: 72%"},
      {"molecule": "Cc1cc(C)cc(OC(=O)c2cc(-c3ccc4c(c3)OCCO4)on2)c1", "survival": "active: -7%"},
      {"molecule": "COc1ccc(/C=C/c2nc(-c3ccccc3O)n(-c3ccccc3)n2)cc1OC", "survival": "active: 8%"},
      {"molecule": "CC(=O)c1ccc(NC(=O)C(Cc2ccccc2)NS(=O)(=O)c2ccc3c(c2)CCC(=O)N3)cc1", "note": "(stereo not given)", "survival": "inactive: 78%"},
      {"molecule": "CCOC(=O)c1ccc(N2C(=O)c3n[nH]c(C)c3C2c2cccc(Br)c2)cc1", "note": "(stereo not given)", "survival": "active: 3%"},
      {"molecule": "O=c1cc(-c2ccccc2)n2c(SCc3ccc(Cl)cc3)nnc2[nH]1", "survival": "inactive: 85%"},
      {"molecule": "COc1ccc(C(=O)c2cn(Cc3ccccc3F)c3cc4c(cc3c2=O)OCO4)cc1", "survival": "inactive: 89%"},
      {"molecule": "COc1ccccc1C(=O)Nc1ccc2oc(-c3cccc(Cl)c3Cl)nc2c1", "survival": "inactive: 100%"},
      {"molecule": "COc1ccc(-n2c3c(cc(-c4nc(-c5ccc(C)cc5)cs4)c2=O)C(=O)CC(C)(C)C3)cc1", "survival": "inactive: 78%"},
      {"molecule": "CC(C)C(=O)NCC(c1ccc2c(c1)OCO2)N1CCN(c2ccccc2F)CC1", "note": "(stereo not given)", "survival": "inactive: 91%"},
      {"molecule": "O=C(NCc1ccccc1)c1ccco1", "survival": "inactive: 111%"},
      {"molecule": "CC1CCCN(C(=O)c2cc3c(=O)n(C)c4ccccc4c3s2)C1", "note": "(stereo not given)", "survival": "inactive: 134%"},
      {"molecule": "Cc1sc2c(c1C)c(=O)n(-c1ccc(Cl)cc1)c(=O)n2Cc1cc(=O)n2ccccc2n1", "survival": "inactive: 78%"},
      {"molecule": "Cc1ccc2nc(N3CCC(C(=O)N4CCN(c5cccc(C)c5C)CC4)CC3)[nH]c2c1", "survival": "inactive: 76%"},
      {"molecule": "CCOc1ccc(C(=O)NCc2nc3cccnc3n2Cc2ccc(F)cc2)cc1OCC", "survival": "inactive: 53%"},
      {"molecule": "COc1ccc(C2C(C(N)=O)=C(C)Nc3nc(SCc4ccccc4Cl)nn32)cc1OC", "note": "(stereo not given)", "survival": "inactive: 143%"},
      {"molecule": "CCOC(=O)c1ccccc1NC(=O)CSc1nc2ccncc2[nH]1", "survival": "inactive: 73%"},
      {"molecule": "Cc1ccc(CNC(=O)c2nc(SCc3ccccc3F)ncc2Cl)cc1", "survival": "inactive: 90%"},
      {"molecule": "O=C(NCc1ccco1)c1ccc(Cn2c(SCc3ccc(F)cc3)nc3cccnc32)cc1", "survival": "inactive: 101%"},
      {"molecule": "Cc1cccc(-c2nnc(SCc3cc(=O)c4cccc(Cl)c4[nH]3)n2C)c1", "survival": "inactive: 72%"},
      {"molecule": "COc1cccc2c1ncc1c(-c3ccc(C)cc3)nn(-c3cccc([N+](=O)[O-])c3)c12", "survival": "inactive: 79%"},
      {"molecule": "Cc1nc2cc(C(=O)O)ccc2n1C", "survival": "inactive: 101%"},
      {"molecule": "CCOc1ccc(-n2c(SCC(=O)N3CCc4ccccc43)nc3c([nH]c4ccccc43)c2=O)cc1", "survival": "inactive: 73%"},
      {"molecule": "CC(=O)Nc1cc(C(C)C)c(O)c(C(C)C)c1", "survival": "inactive: 104%"},
      {"molecule": "CCOC(=O)CNc1nc(Oc2ccc(=O)n(C)n2)nc(N(CC)CC)n1", "survival": "inactive: 71%"},
      {"molecule": "CCC(=O)Nc1cc(-c2cccc(C)c2)nn1-c1ccccc1", "survival": "inactive: 73%"},
      {"molecule": "COc1ccc(N2CCN(Cc3nc4c(c(=O)[nH]c(=O)n4C)n3Cc3ccc(Cl)cc3)CC2)cc1", "survival": "inactive: 118%"},
      {"molecule": "Cc1cccc(-c2nc(SCC(=O)N3CCc4ccccc43)c3c(=O)n(C)c(=O)n(C)c3n2)c1", "survival": "inactive: 78%"},
      {"molecule": "Cn1c(SCc2ccccc2)nnc1C1CCCN1CC(=O)N1CCN(c2ccc(F)cc2)CC1", "note": "(stereo not given)", "survival": "inactive: 113%"},
      {"molecule": "COc1ccc(NC(=O)Cn2c(=O)c(-c3cc(C)ccc3NC(C)=O)nc3ccccc32)c(OC)c1", "survival": "inactive: 86%"},
      {"molecule": "Cc1cc(C)cc(NC(=O)C(=O)NCC(c2ccc3c(c2)OCO3)N2CCN(C)CC2)c1", "note": "(stereo not given)", "survival": "inactive: 88%"},
      {"molecule": "CCCN(Cc1cccs1)C(=O)Nc1ccc(OCC)cc1", "survival": "inactive: 82%"},
      {"molecule": "Cc1cc(=O)[nH]c2nnc(SCC(=O)Nc3ccc(OC(F)(F)F)cc3)n12", "survival": "inactive: 83%"},
      {"molecule": "O=C(COc1ccccc1)NCc1ccc2c(c1)CCN2C(=O)c1ccc(Cl)cc1", "survival": "inactive: 82%"},
      {"molecule": "COc1ccc(NC(=O)N(CCC(C)C)C(C)c2cccs2)c(OC)c1", "note": "(stereo not given)", "survival": "inactive: 97%"},
      {"molecule": "Cc1ccc(C2CCN(C(=O)c3cnn(-c4cccc(Cl)c4)c3C3CCN(C(=O)OC(C)(C)C)CC3)C2)cc1", "note": "(stereo not given)", "survival": "inactive: 77%"},
      {"molecule": "COc1ccc(OC)c(NC(=O)c2cc(-c3ccc(Cl)s3)nc3ccccc23)c1", "survival": "inactive: 102%"},
      {"molecule": "COc1ccccc1CNC(=O)CCc1c(C)nn(-c2ccc(N3CCOCC3)nn2)c1C", "survival": "inactive: 74%"},
      {"molecule": "NCc1nc2cccnc2n1Cc1ccccc1Cl", "survival": "inactive: 71%"},
      {"molecule": "O=C(NCc1ccco1)c1ccc2c(c1)N(Cc1ccccc1)C(=O)c1ccccc1S2(=O)=O", "survival": "inactive: 86%"},
      {"molecule": "O=C(CSc1nc(O)cc(=O)[nH]1)c1ccc(O)cc1O", "survival": "inactive: 108%"},
      {"molecule": "COCCNc1ncnc2c1c(-c1ccccc1)cn2-c1ccc(C)c(Cl)c1", "survival": "inactive: 71%"},
      {"molecule": "COc1ccc(NC(=O)CSc2nc3c([nH]c4ccccc43)c(=O)n2-c2ccccc2)c(OC)c1", "survival": "inactive: 73%"},
      {"molecule": "CCOc1ccc(NC(=O)Cn2c3ncccc3c(=O)n2-c2ccc(CC)cc2)cc1", "survival": "inactive: 80%"},
      {"molecule": "Cc1ccc(CSc2nnc(-c3ccncc3)n2CC2CCCO2)cc1", "note": "(stereo not given)", "survival": "inactive: 97%"},
      {"molecule": "COc1ccc(-n2ncc3c(NC(C)(C)CO)ncnc32)cc1", "survival": "inactive: 59%"},
      {"molecule": "CC1(C)Cc2ccccc2-c2nc3n(c(=O)c21)CCCS3", "survival": "inactive: 112%"},
      {"molecule": "Cc1cc(S(=O)(=O)C(CNC(=O)c2ccc(OC(C)C)cc2)c2cccs2)ccc1F", "note": "(stereo not given)", "survival": "inactive: 74%"},
      {"molecule": "Cc1nc2cccnc2n1C1CCN(S(C)(=O)=O)CC1", "survival": "inactive: 66%"},
      {"molecule": "CCN(CC)S(=O)(=O)c1ccc(NC(=O)NCc2noc3ccc(C)cc23)cc1", "survival": "inactive: 105%"},
      {"molecule": "Cc1ccc(CNC(=O)c2oc3c(c2C)-c2nn(Cc4ccc(Cl)cc4)cc2CC3)cc1", "survival": "inactive: 88%"},
      {"molecule": "COc1ccc(C(=O)Nc2ccccc2C(=O)NC(C(=O)O)C(C)C)cc1", "note": "(stereo not given)", "survival": "inactive: 100%"},
      {"molecule": "COc1ccc(CCNC(=O)c2ccc(OC)cc2)cc1", "survival": "inactive: 103%"},
      {"molecule": "COc1cc2nc(C3CCC3)n(N)c(=O)c2cc1OC", "survival": "inactive: 114%"},
      {"molecule": "Cc1ccccc1S(=O)Cc1ccc(C(=O)N2CCN(c3cccc(C)c3C)CC2)o1", "note": "(stereo not given)", "survival": "inactive: 76%"},
      {"molecule": "Cc1ccc(-c2c(CN3CCN(c4cccc(C)c4)C(C)C3)csc2C)cc1", "note": "(stereo not given)", "survival": "inactive: 90%"},
      {"molecule": "CC(C)CC(=O)N1c2nc(C(C)C)nn2C2(CCCCC2)[C@@H]2CCCC[C@@H]21", "survival": "inactive: 99%"},
      {"molecule": "Cc1ccc2onc(CC(=O)N3CCN(c4ccc(F)cc4)CC3)c2c1", "survival": "inactive: 78%"},
      {"molecule": "COC(=O)c1c(NC(=O)c2cc3ccccc3c(=O)o2)sc2c1CCCC2", "survival": "inactive: 80%"},
      {"molecule": "Cc1cccc(C)c1OCC(=O)Nc1ncn[nH]1", "survival": "inactive: 77%"},
      {"molecule": "CCN(CC)CCNC(=O)c1c(C)oc2ncnc(N3CCOCC3)c12", "survival": "inactive: 134%"},
      {"molecule": "CCOc1ccc(CCNC(=O)c2cnc3sc(N(CC)CC)nn3c2=O)cc1OCC", "survival": "inactive: 127%"},
      {"molecule": "Cc1c(Cl)cccc1NC(=O)CSc1ncc2c(n1)-c1ccccc1N(C)S2(=O)=O", "survival": "inactive: 81%"},
      {"molecule": "CN(CCCNC(=O)c1cc2c(Cl)nc3ccccc3c2s1)Cc1ccccc1", "survival": "inactive: 45%"},
      {"molecule": "Cc1cc(C)c(NC(=O)Cn2cc(S(=O)(=O)Cc3ccccc3F)c3ccccc32)c(C)c1", "survival": "inactive: 78%"},
      {"molecule": "COc1ccc(OC)c(CNS(=O)(=O)c2ccc3c(c2)CCCN3C(C)=O)c1", "survival": "inactive: 75%"},
      {"molecule": "COc1ccccc1NC(=O)N(Cc1nnc2n1CCCCC2)c1ccc(F)cc1", "survival": "inactive: 63%"},
      {"molecule": "CC(=O)c1cccc(NC(=O)C(C)n2c(=O)cc(C)c3c(C)nn(-c4ccccc4)c32)c1", "note": "(stereo not given)", "survival": "inactive: 85%"},
      {"molecule": "COc1ccc(CCNC(=O)c2ccc(Nc3nc4ccccc4n4nnnc34)cc2)cc1OC", "survival": "inactive: 91%"},
      {"molecule": "COc1ccc(NC(=O)Cn2nnc(C(=O)NCCc3ccccc3)c2N)cc1", "survival": "inactive: 81%"},
      {"molecule": "Cc1cccc(N(CC(O)Cn2c3ccccc3c3ccccc32)S(=O)(=O)c2ccc(F)cc2)c1", "note": "(stereo not given)", "survival": "inactive: 70%"},
      {"molecule": "CC(C)c1ccc(NC(=O)c2cc3sc(Cl)cc3n2C)cc1", "survival": "inactive: 136%"},
      {"molecule": "O=C(CN(C(=O)C1CSC(=O)C1)c1ccccc1F)NC1CCCC1", "note": "(stereo not given)", "survival": "inactive: 91%"},
      {"molecule": "O=C(NCCc1ccccc1)c1ccc2c(c1)N(Cc1ccc(F)cc1)C(=O)c1ccccc1S2(=O)=O", "survival": "inactive: 156%"},
      {"molecule": "CC1CCc2c(sc3nc(-c4cc5cc(Br)ccc5oc4=O)[nH]c(=O)c23)C1", "note": "(stereo not given)", "survival": "inactive: 88%"},
      {"molecule": "N#CC(C#N)=Cc1cn(Cc2ccccc2)c2ccccc12", "survival": "inactive: 99%"},
      {"molecule": "O=C(CCS(=O)(=O)c1cccc2nonc12)Nc1c(F)cccc1F", "survival": "inactive: 63%"},
      {"molecule": "Cc1cc(C)cc(NC(=O)N2CCC3(CC2)Oc2ccccc2C(=O)N3Cc2ccccc2F)c1", "survival": "inactive: 79%"}
    ]}
  ]
}
